Data on 69 compounds can be found in PubChem BioAssay AID1224903 (Bradner/Qi Labs at DFCI, 2016).

The structures appear in SMILES notation. The list shows a part of the results. Further columns of the screen follow, without active or inactive calls. Compounds called inactive in the main read-out are mostly missing here.

This test has as its target Chromobox protein homolog 7 (Homo sapiens) (UniProt O95931). Kind of test: blockers of CBX7 binding to H3K27me3 peptide – biochemical, AlphaScreen, primary screen (AID 1224903). The settings on record: AlphaScreen His6-CBX7 / biotin-H3K27me3 peptide binding; measured here: z-score of CBX7 signal; stronger effect = lower value. In general terms: Alpha assays give light when donor and acceptor beads are brought close together.
UniProt O95931, sequence (O95931 whole entry, looked up): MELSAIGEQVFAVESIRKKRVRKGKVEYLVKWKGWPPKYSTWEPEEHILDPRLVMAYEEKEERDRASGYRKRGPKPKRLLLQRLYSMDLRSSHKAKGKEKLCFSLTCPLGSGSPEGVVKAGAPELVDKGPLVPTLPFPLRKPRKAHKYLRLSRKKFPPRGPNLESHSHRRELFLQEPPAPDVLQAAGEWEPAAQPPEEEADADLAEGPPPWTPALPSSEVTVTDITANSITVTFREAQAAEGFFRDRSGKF
Compound `COc1cccc(Nc2nc(-c3ccccc3F)nc3ccccc23)c1` registered a z-score of -0.882.
In the case of `CCCCN(C)S(=O)(=O)c1ccc(C(=O)Nc2nc(-c3ccccn3)cs2)cc1` it was -1.07.
Consider `Cc1cccc(OCc2nc(C#N)c(NCc3ccc4c(c3)OCO4)o2)c1`, for which the z-score was -10.3.
`COc1ccc(C)cc1S(=O)(=O)NCCc1c(C)[nH]c2ccc(C)cc12` returned a z-score of -0.593.
`Cc1nnc(NC(=O)c2ccc(S(=O)(=O)N3CCC(C)CC3)cc2)o1` showed a z-score of -1.29.
To `Cc1c(C)n(CC(O)CNc2ccccc2)c2ccccc12` (centres undefined) belongs -4.91; to `CC(C)n1cnc2cc(NCc3ccccn3)ccc21`, -22.2.
In turn, `c1ccc(CN2CCC(NCCc3ccc4c(c3)OCO4)CC2)cc1` gave a z-score of -1.45.
In the case of `CCOC(=O)c1cnc2ccc(C)cc2c1Nc1ccc(N(CC)CC)cc1` it was -6.3; in that of `Fc1ccc(-c2csc(Nc3ccc4c(c3)OCO4)n2)cc1`, -6.8.
In turn, `Cc1ccc2nc(-c3ccccn3)c(Nc3ccccc3)n2c1` yielded a z-score of -19.2.
As to `COCCN(CCOC)S(=O)(=O)c1ccc(C(=O)Nc2nnc(-c3ccc(F)cc3)o2)cc1`, the z-score is -4.29.
As for `CC1CC(C)CN(S(=O)(=O)c2ccc(C(=O)Nc3nnc(-c4ccc(Cl)s4)o3)cc2)C1` (centres undefined), the z-score is -6.82.
On to `Cc1ccc(OCCN2CCN(c3ccc(C)c(C)c3)CC2)cc1`, for which the z-score was -11.8.
For the compound `COc1ccc(Nc2c(-c3ccccn3)nc3cc(C)ccn23)cc1`, the z-score is -29.5.
To `Cc1ccc(Cn2cc(C(=O)c3ccccc3)c(=O)c3cc(C)ccc32)cc1` belongs -1.98; to `COc1ccc(NC(=O)[C@H](Cc2ccccc2)N2Cc3ccccc3C2=O)cc1Cl`, -1.94; to `CCCCN(CC)S(=O)(=O)c1ccc(C(=O)Nc2nnc(C)o2)cc1`, -1.29.
In the case of `Cc1cccc2nc(-c3ccccn3)c(Nc3ccc4c(c3)OCCO4)n12` it was -21.6; in that of `COc1ccccc1Nc1nc(-c2c(C)nc3sccn23)cs1`, -13.5; in that of `CCCc1noc(-c2cc(-c3ccncc3)nc3ccccc23)n1`, -6.36.
In the case of `CC1CN(S(=O)(=O)c2ccc(C(=O)Nc3nnc(-c4ccc(F)cc4)o3)cc2)CC(C)O1` (centres undefined) it was -4.35; in that of `CCOc1ccc(N2C(=O)c3cccnc3C2Nc2ccc(Br)c(C)c2)cc1` (centres undefined), -10.7.
Turning to `N#Cc1nc(COc2ccc(Br)cc2)oc1N1CCCC1`, the z-score was -27.4.
In the case of `CCOc1ccc(Nc2nc(-c3sc(NC(=O)CC)nc3C)cs2)cc1` it was -0.641; in that of `Cc1ccccc1NCc1nc2ccccc2n1Cc1ccccc1`, -6.6.
In the case of `Oc1ccc(Nc2nc(-c3ccccn3)cs2)cc1` it was -19.8.
In turn, `CCN(CC)S(=O)(=O)c1ccc(C(=O)Nc2nnc(C3CC3)o2)cc1` displayed a z-score of -2.79.
To `Oc1cccc2ccc(Nc3ccccn3)nc12` belongs -10.8.
In the case of `O=C(O)c1c[nH]c2ccc(S(=O)(=O)N3CCCCC3c3cccnc3)cc2c1=O` (centres undefined) it was -8.4; in that of `O=C(c1ccc2c(c1)N(Cc1ccccc1)CCS2)N1CCN(Cc2ccccc2)CC1`, -0.838.
In the case of `O=C(Nc1c2c(nc3c1CCC3)CCCC2)c1ccccn1` it was -11.5; in that of `Cc1cccc2nc(-c3ccccn3)c(Nc3ccc4c(c3)OCO4)n12`, -21.6.
Compound `O=C(Nc1nc(-c2ccccn2)cs1)c1ccc(S(=O)(=O)N2CCOCC2)cc1` displayed a z-score of -18.2.
`O=C(c1ccc(C#Cc2ccccc2)o1)N1CCN(c2ccccn2)CC1` gave a z-score of -5.28.
In turn, `COc1ccc(-c2cn(-c3ccc(F)cc3)c(SCC(=O)Nc3cccc(F)c3)n2)cc1OC` returned a z-score of -4.67.
To `CCCCN(CC)S(=O)(=O)c1ccc(C(=O)Nc2nnc(C3CC3)o2)cc1` belongs -1.67.
In the case of `Cc1ccc(-c2nc3ccccn3c2Nc2ccc3c(c2)OCO3)cc1` it was -5.21; in that of `COc1ccc(Cc2noc(-c3cc(-c4ccncc4)nc4ccccc34)n2)cc1`, -5.79.
To `COc1ccc(-c2csc(Nc3ccc4c(c3)OCO4)n2)cc1Br` belongs -11.7; to `Cc1ccc(NC(=O)C2c3ccccc3C(=O)N3CCc4ccccc4C23)nc1` (centres undefined), -0.696.
In the case of `COc1cc(/C=C/c2cc(C(F)(F)F)[nH]c(=O)n2)ccc1OCc1ccc(Cl)cc1Cl`, the z-score is -15.8.
To `COc1cccc(-c2nnc(NC(=O)c3ccc(S(=O)(=O)N(C)Cc4ccccc4)cc3)o2)c1` belongs -15.1.
To `CCOc1ccccc1NC(=O)CSc1nccn1-c1ccc(Cl)cc1` belongs -2.42.
In the case of `COc1ccccc1C(CCNCc1ccc(OC(C)C)cc1)c1ccc2c(c1)OCO2` (centres undefined) it was -2.33; in that of `CCOC(=O)c1cnc2ccc(OC)cc2c1Nc1ccc(N(C)C)cc1`, -2.61.
`N#Cc1nc(COc2ccc(Cl)cc2)oc1N1CCCCCC1` had a z-score of -3.92.
To `Cc1ccc(Nc2nc(-c3ccc(C)c(C)c3)cs2)cc1` belongs -9.51; to `O=C(Nc1ccc2c(c1)OCO2)[C@H](Cc1ccccc1)N1Cc2ccccc2C1=O`, -1.63.
As to `COc1ccc(-c2nc(-c3ccccc3)c(-c3ccc(F)cc3)[nH]2)c(OC)c1C`, the z-score was -0.513.
`Cc1ccc(C)c(-c2csc(Nc3ccc4c(c3)OCO4)n2)c1` yielded a z-score of -7.2.
On to `Oc1ccc(-c2nc(-c3ccccc3)c(-c3cccs3)[nH]2)cc1`, for which the z-score was -3.34.
For `CCc1cc2c(oc(=O)c3ccccc32)c(CN2CCN(C)CC2)c1O`, the z-score is -12.9.
For `CCCCN1CCCc2cc(CN(CCCN3CCOCC3)C(=O)Nc3ccc(CC)cc3)ccc21`, the z-score is -15.1.
In turn, `Cc1cccc(Nc2nc(-c3ccccn3)cs2)c1` had a z-score of -16.6.
Compound `COc1ccc(-c2csc(Nc3ccc(N)cc3)n2)cc1` yielded a z-score of -7.5.
As for `Cc1nc(C)c(-c2csc(Nc3ccccc3)n2)s1`, the z-score was -10.3.
In the case of `COc1ccc(OCCCCCCc2c(C)n[nH]c2C)cc1` it was -20.2; in that of `Cc1ccc([N+](=O)[O-])cc1-c1[nH]c(-c2ccc(F)cc2)nc1-c1ccccc1`, -0.518.
In the case of `CCCN1CCCc2cc(CN(CCCOC)C(=O)Nc3ccc(OCC)cc3)ccc21` it was -15.1; in that of `CCCC(=O)NC(c1cccs1)c1cc(Cl)c2cccnc2c1O` (centres undefined), -2.57; in that of `COc1cc(OC)cc(C(=O)Nc2nc(-c3ccccn3)cs2)c1`, -18.2.
In turn, `Cc1cccc(N2CCN(C(=O)c3cc(-c4ccncc4)nc4ccccc34)CC2C)c1` (centres undefined) came in with a z-score of -6.7.
Compound `N#Cc1nc(COc2ccccc2F)oc1N1CCN(c2ccccc2)CC1` yielded a z-score of -6.59.
Compound `CC1CCCCN1S(=O)(=O)c1ccc(C(=O)Nc2nnc(C3CC3)o2)cc1` (centres undefined) came in with a z-score of -2.8.
In the case of `CCc1ccc(C(=O)CC2(O)C(=O)N(Cc3ccccc3C)c3ccccc32)cc1` (centres undefined) it was -6.91.
The compound `Cc1nnc(NC(=O)c2ccc(S(=O)(=O)N3CCCCC3)cc2)o1` gave a z-score of -1.3.
Take `Cc1cc2ncn(CC(O)COCc3ccccc3)c2cc1C` (centres undefined): the z-score is -17.9.
`Cc1ccn2c(NC3CCCC3)c(-c3ccccn3)nc2c1` showed a z-score of -15.2.
